{"source": "PubChem BioAssay AID2147", "about": "(National Center for Advancing Translational Sciences (NCATS), 2009)", "note": "In all, about 230,000 compounds went through this assay and about 3,600 (1.6%) were called active. Inconclusive results, whose numbers are uncertain, are shown with a selection of clear calls. Calls come from the whole dose curve; as a rule, active = well fitted inhibition curve with a large enough effect (not every such curve was filed as active); inconclusive = small, poorly fitted or top-dose-only effect, or another doubt; inactive = no such curve, though single readings can be large or run the other way. Where the call is inconclusive, the potency comes from a doubtful curve fit.", "data": [{"biological_target": "Lysine-specific demethylase 4E (Homo sapiens) (UniProt B2RXH2)", "sequence (B2RXH2 whole entry, looked up, the tested form may be a part)": "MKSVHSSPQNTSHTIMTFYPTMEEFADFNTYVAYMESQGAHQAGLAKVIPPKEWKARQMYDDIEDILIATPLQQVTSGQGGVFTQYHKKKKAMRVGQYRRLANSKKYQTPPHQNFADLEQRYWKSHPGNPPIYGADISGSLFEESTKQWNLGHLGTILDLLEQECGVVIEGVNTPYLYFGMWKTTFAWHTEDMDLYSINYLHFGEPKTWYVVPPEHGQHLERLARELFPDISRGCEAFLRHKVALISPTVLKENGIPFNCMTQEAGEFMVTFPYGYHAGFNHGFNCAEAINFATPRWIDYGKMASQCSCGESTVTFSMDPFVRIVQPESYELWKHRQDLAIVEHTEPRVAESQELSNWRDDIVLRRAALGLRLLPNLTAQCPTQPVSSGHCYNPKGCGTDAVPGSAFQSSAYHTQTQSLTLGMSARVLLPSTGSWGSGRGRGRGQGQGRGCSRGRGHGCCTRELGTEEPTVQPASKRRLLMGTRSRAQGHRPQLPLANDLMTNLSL", "test": "qHTS Assay for Inhibitors of Human Jumonji Domain Containing 2E (JMJD2E)", "conditions": "JMJD2E catalytic domain, FDH-coupled NADH fluorescence (FDH is formaldehyde dehydrogenase); series mostly up to 57.1 µM", "values": [{"compound": "CC[C@H](CC[C@@H](C)C1CC[C@H]2[C@@H]3CC=C4C[C@@H](O)CC[C@]4(C)[C@H]3CC[C@]12C)C(C)C", "note": "(some centres undefined); note: nearly all actives have a fitted effect of over 50% in size; note: potency is the fitted concentration of half-maximal effect; tags give direction and shape of the fitted curve", "Potency": "inactive"}, {"compound": "CN(c1ccccn1)c1ncnc2[nH]ncc12", "Potency": "inactive"}, {"compound": "O=C(NCc1ccc2[nH]c3c(c2c1)CCCC3)N1CCOCC1", "Potency": "inconclusive: 22.4 µM [inhibitor, partial curve]"}, {"compound": "CC(C)(C)NC(=O)NCc1ccco1", "Potency": "inactive"}, {"compound": "CCOc1ccc(-c2nnc(-c3cccs3)o2)cc1", "Potency": "inconclusive: 31.6 µM [inhibitor, partial curve]"}, {"compound": "C/C(=N\\OCC(=O)Nc1ccc2c(c1)OCCO2)c1ccc2c(c1)OCCO2", "Potency": "inactive"}, {"compound": "Cc1cc(C(=O)N/N=C/c2sc(N3CCOCC3)nc2-c2ccccc2)c(C)o1", "Potency": "inconclusive: 35.5 µM [inhibitor, single point]"}, {"compound": "c1ccc(Nc2nc3ccccc3n3nnnc23)cc1", "Potency": "inconclusive: 39.8 µM [inhibitor, single point]"}, {"compound": "CCN(CC(O)Cn1c2ccccc2c2ccccc21)S(=O)(=O)c1ccc(C)cc1", "note": "(centres undefined)", "Potency": "inactive"}, {"compound": "Cc1ccc(S(=O)(=O)NC(=O)c2cc(C)n(-c3ccc(N(C)C)cc3)c2C)cc1", "Potency": "inconclusive: 31.6 µM [inhibitor, partial curve]"}, {"compound": "Cc1ccc(C)c(NC(=O)C2=CCN(S(=O)(=O)c3ccc(F)cc3)CC2)c1", "Potency": "inactive"}, {"compound": "COCCNC(=O)CS(=O)Cc1nc(-c2ccc(OC)cc2)oc1C", "note": "(centres undefined)", "Potency": "inconclusive: 28.2 µM [inhibitor, single point]"}, {"compound": "CCCCn1c(-c2ccccc2)nc2c(=O)n(C)c(=O)[nH]c21", "Potency": "inconclusive: 14.1 µM [inhibitor, partial curve]"}, {"compound": "Cc1ccc(CNC(=O)c2sc3ccc(S(=O)(=O)N4CCCCC4)cc3c2N)cc1", "Potency": "inconclusive: 35.5 µM [inhibitor, single point]"}, {"compound": "COc1ccccc1C(=O)Nc1cccc(Oc2c(F)c(F)c(F)c(F)c2F)c1", "Potency": "inconclusive: 39.8 µM [inhibitor, single point]"}, {"compound": "C=CCOn1c(C)c(C(C)=O)c2c3nonc3ccc21", "Potency": "inconclusive: 35.5 µM [inhibitor, partial curve]"}, {"compound": "CCN1C(=O)c2cccc3c(S(=O)(=O)Nc4ncccc4C)ccc1c23", "Potency": "inactive"}, {"compound": "C=CCn1c(=S)[nH]c2nc3c(cc2c1=O)COC(C)(C)C3", "Potency": "inconclusive: 39.8 µM [inhibitor, single point]"}, {"compound": "CCOC(=O)c1cc[n+](CC(=O)c2ccc(F)cc2)cc1", "Potency": "active: 31.6 µM"}, {"compound": "COC(=O)C[C@](O)(CCCC(C)(C)O)C(=O)O[C@@H]1C(OC)=C[C@]23CCCN2CCc2cc4c(cc2[C@H]13)OCO4", "Potency": "inactive"}, {"compound": "COC(=O)c1oc2nc(C)cc(C)c2c1N", "Potency": "inconclusive: 31.6 µM [inhibitor, partial curve]"}, {"compound": "COc1cccc(NCc2ccc([N+](=O)[O-])s2)c1", "Potency": "inconclusive: 5.01 µM [inhibitor, full curve]"}, {"compound": "CS(=O)(=O)N1CCN(c2ncnc3c2cnn3-c2ccccc2)CC1", "Potency": "inactive"}, {"compound": "O=C(O)c1cccc(S(=O)(=O)Nc2ccc3oc(=O)sc3c2)c1", "Potency": "inconclusive: 28.2 µM [inhibitor, single point]"}, {"compound": "CCCC(C)c1nnc(NC(=O)CS(=O)(=O)Cc2ccccc2)s1", "note": "(centres undefined)", "Potency": "inactive"}, {"compound": "COc1ccc2nc3c(cc2c1)c(NC(=O)C1CCCO1)nn3CC(C)C", "note": "(centres undefined)", "Potency": "inconclusive: 31.6 µM [inhibitor, partial curve]"}, {"compound": "c1ccc(-c2cc3n(c2)CCc2ccccc2-3)cc1", "Potency": "inconclusive: 25.1 µM [inhibitor, single point]"}, {"compound": "CCOC(=O)c1c(-c2ccccc2)csc1NC(=O)c1ccc(N2C(=O)CCC2=O)cc1", "Potency": "inactive"}, {"compound": "CN1CC=C2C(C#N)=C(N)C(C#N)(C#N)C(c3ccsc3)C2C1", "note": "(centres undefined)", "Potency": "inconclusive: 28.2 µM [inhibitor, partial curve]"}, {"compound": "Cc1csc2ncc(C(=O)N3CCCc4ccccc43)c(=O)n12", "Potency": "inconclusive: 35.5 µM [inhibitor, single point]"}, {"compound": "Cc1cnc(C(=O)OCC(=O)NC23CC4CC(CC(C4)C2)C3)cn1", "Potency": "inactive"}, {"compound": "CC(C)CNC(=O)NC(=O)COC(=O)Cn1cnc2ccccc2c1=O", "Potency": "inactive"}, {"compound": "COc1cc(/C=C(\\C#N)C(=O)Nc2ccccc2C(=O)O)cc(Cl)c1OC", "Potency": "inconclusive: 28.2 µM [inhibitor, single point]"}, {"compound": "COc1ccc(-n2c(=O)c3c4c(sc3n(CC(N)=O)c2=O)CCCCC4)cc1", "Potency": "inactive"}, {"compound": "CCCCN(CC)CCNC(=O)CCC(=O)Nc1ccc2nc(N3CCN(C)CC3)cc(C)c2c1", "Potency": "inconclusive: 35.5 µM [inhibitor, partial curve]"}, {"compound": "COCCOc1ccc(C(F)(F)F)cc1NC(=O)c1ccc(C)cc1", "Potency": "inconclusive: 8.91 µM [inhibitor, single point]"}, {"compound": "COc1nc(-c2ccccc2)cc(-c2ccc(OC)c(OC)c2)n1", "Potency": "inconclusive: 31.6 µM [inhibitor, partial curve]"}, {"compound": "Cc1cccn2c(=O)c(/C=C(\\C#N)C(=O)NCc3ccco3)c(N3CCOCC3)nc12", "Potency": "inconclusive: 31.6 µM [inhibitor, partial curve]"}, {"compound": "COC(=O)c1cn(NC(=O)Cc2ccccc2OC)c(=O)c2ccccc12", "Potency": "inconclusive: 22.4 µM [inhibitor, single point]"}, {"compound": "C#CCOCCOCCOCCNc1nc(N2CCN(C(=O)[C@H]([C@@H](C)CC)n3cc([C@@H](N)Cc4ccc(O)cc4)nn3)CC2)nc(N2CCN(C(=O)[C@H](CCCCN)n3cc([C@@H](N)CO)nn3)CC2)n1", "Potency": "inactive"}, {"compound": "Cn1c(SCC(=O)c2ccc3c(c2)Cc2ccccc2-3)nnc1-c1ccccc1", "Potency": "inconclusive: 39.8 µM [inhibitor, single point]"}, {"compound": "Cc1ccc(C(=O)NC2CC3CCCC(C2)N3C(=S)NCc2ccco2)cc1", "note": "(centres undefined)", "Potency": "inactive"}, {"compound": "CC(C)CN(C(=O)CSc1nnc2c(Cl)cc(C(F)(F)F)cn12)C1CCS(=O)(=O)C1", "note": "(centres undefined)", "Potency": "inconclusive: 31.6 µM [inhibitor, partial curve]"}, {"compound": "FC(F)(F)c1cc(-c2ccco2)nc(NCc2ccco2)n1", "Potency": "inconclusive: 28.2 µM [inhibitor, single point]"}]}]}
